Source: article PMC6377148
Results are given in words; binding and its absence hold for the method and conditions named. Binding seen in cells or lysates may run through a third protein. Some entries that bind do so weakly or less than the wild type. Where a sequence is shown, tags or fusion partners need not be part of it.

Chains of the proteins cited; added tags and fusions are not shown.
UniProt Q7Z2Z1: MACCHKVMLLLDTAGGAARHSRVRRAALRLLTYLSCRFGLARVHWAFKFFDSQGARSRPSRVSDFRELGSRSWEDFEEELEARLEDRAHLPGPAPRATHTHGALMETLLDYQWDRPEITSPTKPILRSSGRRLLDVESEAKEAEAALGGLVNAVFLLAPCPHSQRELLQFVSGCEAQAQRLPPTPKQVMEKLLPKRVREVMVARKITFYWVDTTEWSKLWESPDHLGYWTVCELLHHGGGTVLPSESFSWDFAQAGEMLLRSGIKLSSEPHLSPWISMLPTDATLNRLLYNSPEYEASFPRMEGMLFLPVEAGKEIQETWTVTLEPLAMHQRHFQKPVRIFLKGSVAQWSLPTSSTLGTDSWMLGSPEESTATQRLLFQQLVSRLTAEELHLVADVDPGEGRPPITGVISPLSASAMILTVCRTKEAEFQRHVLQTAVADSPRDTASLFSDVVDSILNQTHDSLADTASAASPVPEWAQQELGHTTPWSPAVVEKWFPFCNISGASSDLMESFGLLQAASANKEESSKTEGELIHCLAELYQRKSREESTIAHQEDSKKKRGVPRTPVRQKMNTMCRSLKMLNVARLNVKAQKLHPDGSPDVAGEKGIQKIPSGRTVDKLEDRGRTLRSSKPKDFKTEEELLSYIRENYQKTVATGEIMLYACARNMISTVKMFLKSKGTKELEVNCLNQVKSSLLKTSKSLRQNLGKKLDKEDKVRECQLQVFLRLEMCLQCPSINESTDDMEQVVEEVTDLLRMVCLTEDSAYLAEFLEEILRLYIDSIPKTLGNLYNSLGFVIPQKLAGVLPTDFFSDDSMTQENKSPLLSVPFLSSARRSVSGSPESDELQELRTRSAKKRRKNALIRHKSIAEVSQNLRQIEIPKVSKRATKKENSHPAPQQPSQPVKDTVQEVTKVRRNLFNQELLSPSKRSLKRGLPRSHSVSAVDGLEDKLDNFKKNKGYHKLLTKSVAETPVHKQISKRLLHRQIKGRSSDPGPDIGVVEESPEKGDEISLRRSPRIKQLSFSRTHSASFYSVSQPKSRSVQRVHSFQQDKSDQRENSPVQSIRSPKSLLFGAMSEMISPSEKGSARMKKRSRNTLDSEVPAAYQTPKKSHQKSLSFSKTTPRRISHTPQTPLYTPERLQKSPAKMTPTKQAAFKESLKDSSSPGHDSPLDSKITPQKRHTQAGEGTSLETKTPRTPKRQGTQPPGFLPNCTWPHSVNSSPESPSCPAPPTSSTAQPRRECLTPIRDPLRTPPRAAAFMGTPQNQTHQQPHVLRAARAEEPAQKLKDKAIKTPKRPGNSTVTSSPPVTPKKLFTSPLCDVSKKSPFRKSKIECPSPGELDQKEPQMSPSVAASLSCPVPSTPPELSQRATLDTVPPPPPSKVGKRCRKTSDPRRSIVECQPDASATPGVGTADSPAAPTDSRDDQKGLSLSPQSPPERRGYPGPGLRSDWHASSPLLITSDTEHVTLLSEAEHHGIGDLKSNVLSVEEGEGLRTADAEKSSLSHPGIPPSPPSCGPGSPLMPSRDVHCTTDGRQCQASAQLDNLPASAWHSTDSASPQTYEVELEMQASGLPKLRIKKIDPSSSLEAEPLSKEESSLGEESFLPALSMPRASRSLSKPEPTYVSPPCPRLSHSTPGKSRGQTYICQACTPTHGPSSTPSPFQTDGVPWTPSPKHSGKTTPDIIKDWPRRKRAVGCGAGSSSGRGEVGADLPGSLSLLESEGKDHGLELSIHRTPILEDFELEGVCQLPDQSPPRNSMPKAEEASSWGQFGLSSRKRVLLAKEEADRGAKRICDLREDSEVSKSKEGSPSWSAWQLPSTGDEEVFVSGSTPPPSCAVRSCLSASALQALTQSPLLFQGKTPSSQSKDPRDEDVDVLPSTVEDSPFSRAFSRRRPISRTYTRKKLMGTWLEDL
UniProt P49336: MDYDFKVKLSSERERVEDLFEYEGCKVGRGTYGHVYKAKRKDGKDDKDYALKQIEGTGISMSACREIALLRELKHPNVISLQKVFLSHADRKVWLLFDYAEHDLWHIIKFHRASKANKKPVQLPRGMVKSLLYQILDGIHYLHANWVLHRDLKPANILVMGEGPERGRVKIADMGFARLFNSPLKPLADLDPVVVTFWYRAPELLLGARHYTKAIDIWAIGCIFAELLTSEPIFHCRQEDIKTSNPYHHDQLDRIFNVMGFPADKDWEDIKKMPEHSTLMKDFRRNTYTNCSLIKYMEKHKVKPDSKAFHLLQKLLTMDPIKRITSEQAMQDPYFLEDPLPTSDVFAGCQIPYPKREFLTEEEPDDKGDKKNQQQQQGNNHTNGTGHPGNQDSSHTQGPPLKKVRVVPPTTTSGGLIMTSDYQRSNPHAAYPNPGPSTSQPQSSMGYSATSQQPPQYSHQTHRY

Assays:
[1] = target: T1, MTBP-Δ516–704–3×Flag-TEV2-GFP (mSld7) (human) (UniProt Q96DY7); assay: co-IP; anti-GFP (GFP nanobodies, mock-coupled control beads) IP from native lysates of HeLa Flip-In T-Rex lines expressing MTBP-3×Flag-TEV2-GFP (WT or deletions); endogenous Treslin/TICRR and Cdk8 by immunoblot
T1 sequence: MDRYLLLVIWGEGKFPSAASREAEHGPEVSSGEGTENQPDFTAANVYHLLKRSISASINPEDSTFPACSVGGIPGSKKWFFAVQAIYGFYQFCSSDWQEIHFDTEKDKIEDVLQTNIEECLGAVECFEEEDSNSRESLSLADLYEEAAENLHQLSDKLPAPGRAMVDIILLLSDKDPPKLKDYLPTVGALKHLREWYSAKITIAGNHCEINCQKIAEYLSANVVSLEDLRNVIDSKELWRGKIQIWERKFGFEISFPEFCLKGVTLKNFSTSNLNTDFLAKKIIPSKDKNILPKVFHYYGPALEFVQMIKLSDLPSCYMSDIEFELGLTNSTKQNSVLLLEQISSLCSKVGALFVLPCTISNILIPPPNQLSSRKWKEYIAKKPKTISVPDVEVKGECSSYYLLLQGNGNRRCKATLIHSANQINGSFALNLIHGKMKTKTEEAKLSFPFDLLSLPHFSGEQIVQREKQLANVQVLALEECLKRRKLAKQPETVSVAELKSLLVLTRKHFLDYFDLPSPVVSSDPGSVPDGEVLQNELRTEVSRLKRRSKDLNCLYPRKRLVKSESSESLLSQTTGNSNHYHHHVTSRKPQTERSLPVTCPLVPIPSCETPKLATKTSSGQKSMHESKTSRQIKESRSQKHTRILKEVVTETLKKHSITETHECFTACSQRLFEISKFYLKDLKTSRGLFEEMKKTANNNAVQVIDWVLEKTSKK

[2] = target: T2, MTBP-ΔR595–P704-Flag3-TEV2-GFP (human) (UniProt Q96DY7); assay: as above
T2 sequence: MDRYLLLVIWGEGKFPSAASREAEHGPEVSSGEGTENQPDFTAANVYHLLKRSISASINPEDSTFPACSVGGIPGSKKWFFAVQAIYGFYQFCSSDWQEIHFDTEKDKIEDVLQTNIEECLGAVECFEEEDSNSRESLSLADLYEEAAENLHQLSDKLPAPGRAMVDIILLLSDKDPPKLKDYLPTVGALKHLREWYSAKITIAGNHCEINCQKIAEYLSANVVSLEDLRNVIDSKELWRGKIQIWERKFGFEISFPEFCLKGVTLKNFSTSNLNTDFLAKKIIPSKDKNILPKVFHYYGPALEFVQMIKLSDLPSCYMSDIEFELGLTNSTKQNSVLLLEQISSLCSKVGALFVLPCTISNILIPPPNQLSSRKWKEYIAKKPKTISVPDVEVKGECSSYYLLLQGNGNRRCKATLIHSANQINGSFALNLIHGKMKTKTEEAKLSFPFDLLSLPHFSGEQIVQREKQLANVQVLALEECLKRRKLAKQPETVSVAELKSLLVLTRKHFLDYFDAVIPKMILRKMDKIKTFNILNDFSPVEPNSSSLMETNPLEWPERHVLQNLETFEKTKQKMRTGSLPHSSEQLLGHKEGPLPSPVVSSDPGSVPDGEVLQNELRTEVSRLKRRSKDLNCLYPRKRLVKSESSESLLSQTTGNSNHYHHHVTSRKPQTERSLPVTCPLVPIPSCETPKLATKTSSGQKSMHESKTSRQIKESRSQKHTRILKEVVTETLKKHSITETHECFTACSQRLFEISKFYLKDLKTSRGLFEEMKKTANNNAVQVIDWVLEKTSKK

[3] = target: T3, MTBP-m1 (C413A), C-terminally 3×Flag-tagged (293T) (human) (UniProt Q96DY7); assay: co-IP; 293T transiently transfected with C-terminally 3×Flag-tagged MTBP; anti-FLAG antibody on Protein G Dynabeads, lysis buffer 20 mM HEPES, 150 mM NaCl, 10% glycerol, 0.1% Triton X-100, 1 h at 4°C; endogenous Treslin/TICRR and Cdk8 by immunoblot
T3 sequence: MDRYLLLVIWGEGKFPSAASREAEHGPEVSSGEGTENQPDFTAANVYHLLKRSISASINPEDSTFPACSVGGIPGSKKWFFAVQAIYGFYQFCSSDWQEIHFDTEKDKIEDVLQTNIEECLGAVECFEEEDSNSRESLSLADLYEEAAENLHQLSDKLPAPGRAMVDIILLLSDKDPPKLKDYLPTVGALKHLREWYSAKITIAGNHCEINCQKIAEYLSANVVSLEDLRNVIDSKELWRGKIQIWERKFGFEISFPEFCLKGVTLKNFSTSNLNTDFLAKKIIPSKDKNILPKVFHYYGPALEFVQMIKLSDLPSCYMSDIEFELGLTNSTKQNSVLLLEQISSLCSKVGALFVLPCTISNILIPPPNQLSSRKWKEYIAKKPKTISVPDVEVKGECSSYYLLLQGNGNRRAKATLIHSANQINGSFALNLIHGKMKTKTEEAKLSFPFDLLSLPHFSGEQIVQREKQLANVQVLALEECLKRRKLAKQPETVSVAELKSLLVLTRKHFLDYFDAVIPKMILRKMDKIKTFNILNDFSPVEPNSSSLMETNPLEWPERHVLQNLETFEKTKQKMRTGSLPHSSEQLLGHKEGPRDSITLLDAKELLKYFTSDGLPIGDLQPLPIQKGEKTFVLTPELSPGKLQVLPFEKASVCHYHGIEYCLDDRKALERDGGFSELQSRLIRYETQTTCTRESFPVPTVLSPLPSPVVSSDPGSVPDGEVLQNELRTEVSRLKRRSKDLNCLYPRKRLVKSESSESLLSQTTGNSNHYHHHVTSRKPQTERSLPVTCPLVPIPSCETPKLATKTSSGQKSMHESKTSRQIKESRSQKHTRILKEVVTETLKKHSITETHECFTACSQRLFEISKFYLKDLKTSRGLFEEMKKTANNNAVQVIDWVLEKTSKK

Row | Substance | binding [1] | binding [2] | binding [3]
1 | Treslin/TICRR (TopBP1-interacting replication stimulating protein/TopBP1-interacting checkpoint and replication regulator), endogenous (from UniProt Q7Z2Z1 1-1910) | binds weakly |  | 
2 | Cdk8 (cyclin-dependent kinase 8), endogenous (from UniProt P49336 1-464) (enzyme) |  | no binding | binds
